# Test results reported in PubChem BioAssay AID624417 (National Center for Advancing Translational Sciences (NCATS), 2012).
# Where “and” joins values, the source holds several entries; their conditions need not be identical. Identical values can stand only once. In all, about 410,000 compounds went through this assay and about 6,400 (1.6%) were called active. The shares of active, inactive and inconclusive entries below differ from those in the screen. Calls come from the whole dose curve; as a rule, active = well fitted inhibition curve with a large enough effect; inconclusive = small, poorly fitted or top-dose-only effect; inactive = no such curve, though single readings can be large or run the other way. Where the call is inconclusive, the potency comes from a doubtful curve fit.
# Molecular target: Glucagon-like peptide 1 receptor (Homo sapiens) (UniProt P43220)
# Experiment: qHTS of GLP-1 Receptor Inverse Agonists (Inhibition Mode); note: nearly all actives have a fitted effect of over 55% in size
# Conditions: HEK293 GLP-1R CRE-luciferase, luminescence, 24 h, GLP-1R form is constitutively active; series mostly up to 38.3 µM
# Excerpt: The overall goal of this project was to develop a novel assay for discovering small molecule ligands for class B1 G protein-coupled receptors (GPCRs). Very few agonists (or inverse agonists in inhibition mode) with generally weak activity for this entire group of physiologically important receptors are known to date. To establish proof-of-principle that this critical bottleneck can be overcome with a suitable screening approach, our studies focused on the class B1 receptor for glucagon-like peptide-1 (GLP-1R), a potential therapeutic target for diabetes and neurodegenerative disease. The assay was developed using a cell-based functional readout. Toward this goal, stably transfected HEK293 cell clones were established that co-express (i) a cAMP-responsive luciferase reporter gene, and (ii) constitutively active GLP-1R that upon ligand interaction inhibit (inverse agonists) the luciferase activity. In addition, two control cell lines were developed: (i) one that express only the cAMP-responsive reporter gene to enable initial exclusion of GLP-1R independent effects of candidate probes; and (ii) one with the reported gene cloned with another constitutively active orphan receptor GPR119 to enable exclusion of GLP-1R independent inhibitor effects of candidate inverse agonists. To that end, this assay was optimized for 1536-well format and screened against the MLSMR. […] NIH Molecular Libraries Probe Production Network [MLPCN] NIH Chemical Genomics Center [NCGC] Grant: NS064851 PI Name: Martin Beinborn, Tufts Medical Center
# Six ul of cell suspension (200 cells/uL in DMEM + 10% Nu serum + 1% pen-strep) is dispensed in a white solid 1536-well plate. The plates are incubated for 12 hours at 37 deg C at 5% CO2 followed by addition of 23 nL compounds. After 24 hr incubation at 37 deg C and 5% CO2, 3 uL of luciferase assay detection reagent is added. A luminescence read is obtained on the PerkinElmer Viewlux after 12 min incubation at room temperature.
# Potency is the fitted concentration of half-maximal effect; tags give direction and shape of the fitted curve.
# Chain of UniProt P43220 (P43220 whole entry, looked up): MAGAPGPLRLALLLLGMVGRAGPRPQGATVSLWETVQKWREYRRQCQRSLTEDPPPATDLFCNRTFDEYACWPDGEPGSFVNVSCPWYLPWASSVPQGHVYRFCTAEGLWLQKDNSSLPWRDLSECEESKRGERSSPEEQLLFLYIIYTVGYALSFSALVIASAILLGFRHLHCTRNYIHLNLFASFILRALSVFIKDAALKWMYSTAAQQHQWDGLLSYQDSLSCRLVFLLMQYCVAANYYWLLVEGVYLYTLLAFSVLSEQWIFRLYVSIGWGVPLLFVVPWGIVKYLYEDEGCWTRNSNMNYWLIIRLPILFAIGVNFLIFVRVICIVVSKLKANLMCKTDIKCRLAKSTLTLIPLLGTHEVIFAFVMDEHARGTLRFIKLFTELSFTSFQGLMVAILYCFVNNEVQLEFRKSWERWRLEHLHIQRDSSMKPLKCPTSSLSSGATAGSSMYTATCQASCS
row,SMILES,Potency
1,CC(C)c1cc(NCCN2CCOCC2)n2c(nc3ccccc32)c1C#N,inactive
2,Cc1onc(-c2c(Cl)cccc2Cl)c1C(=O)N1C=CC(C(F)(F)F)=NCC1,"inconclusive: 28.2 µM [inhibitor, single point]"
3,CC(C)CSc1nc2ccccc2c(=O)[nH]1,"inconclusive: 31.6 µM [inhibitor, single point]"
4,O=C(NC1CCN(C(=S)Nc2ccc(F)cc2)CC1)C1CCCCC1,inactive
5,COc1cccc(OC)c1OCC(C)CNCC1CCCO1 (stereo unspecified),inactive
6,Cc1onc(-c2ccccc2Cl)c1C(=O)Nc1ccccc1C(=O)NC(C)C,"inconclusive: 28.2 µM [inhibitor, single point]"
7,O=C(c1ccc2c(c1)N(Cc1cccc(Cl)c1)C(=O)c1ccccc1S2(=O)=O)N1CCCCCC1,"inconclusive: 28.2 µM [inhibitor, single point]"
8,COc1ccccc1NS(=O)(=O)c1ccc(C)c(NC(=O)c2ccc(S(=O)(=O)N3CCCCCC3)cc2)c1,"inconclusive: 2.51 µM [inhibitor, full curve, poor fit]"
9,O=C(CSc1oc(-c2ccc(F)cc2)nc1S(=O)(=O)c1ccc(Cl)cc1)c1ccccc1,"inconclusive: 22.4 µM [inhibitor, single point]"
10,C=C1CCN([C@H](C(=O)OCc2cccc(C)c2)C(C)C)S(=O)(=O)c2ccccc21,"inconclusive: 12.6 µM [inhibitor, partial curve, poor fit]"
11,COc1cc(CN(C)CC2CCCN(CCc3cccc(C(F)(F)F)c3)C2)ccc1O (stereo unspecified),"inconclusive: 2 µM [inhibitor, partial curve, poor fit]"
12,COc1cccc(-c2cn3c(n2)sc2cc(C(=O)NCCC4=CCCCC4)ccc23)c1,"inconclusive: 10 µM [inhibitor, partial curve]"
13,COC(=O)C1=CN(c2ccc(OC)cc2)C(N)=C(C#N)C1c1ccccc1F (stereo unspecified),"inconclusive: 8.91 µM [inhibitor, partial curve, poor fit]"
14,O=[N+]([O-])c1cccc(-c2ccc(CN3CCN(c4ccccc4)CC3)o2)c1,"inconclusive: 6.31 µM [inhibitor, single point]"
15,CC(=O)N=c1sc2nc3ccccc3nc2n1N(C(C)=O)C(C)=O,inactive
16,CC(C)=NNc1nc(-c2ccccc2)cs1,"inconclusive: 2.82 µM [inhibitor, full curve, poor fit]"
17,CC(=O)N1N=C(c2ccc([N+](=O)[O-])cc2)CC1c1ccccc1Cl (stereo unspecified),"inconclusive: 12.6 µM [inhibitor, partial curve, poor fit]"
18,CC(C)OC(=O)CCCCCN1C(=O)CSC1=S,"inconclusive: 28.2 µM [inhibitor, single point]"
19,Cc1cccc(-c2nc(C)c(CCNC(=O)c3cccs3)s2)c1,"inconclusive: 28.2 µM [inhibitor, single point]"
20,O=C(NCC(c1cccnc1)N1CCc2ccccc2C1)C(=O)Nc1ccc(F)cc1F (stereo unspecified),"inconclusive: 8.91 µM [inhibitor, single point]"
21,COc1ccc(OC)c(S(=O)(=O)NCC(c2ccco2)N2CCc3ccccc32)c1 (stereo unspecified),"inconclusive: 15.8 µM [inhibitor, partial curve, poor fit]"

row,SMILES,Potency
1,CC1=C/C(=C(/c2cc(C)c(O)c(Br)c2)c2ccccc2S(=O)(=O)O)C=C(Br)C1=O,"inconclusive: 7.08 µM [inhibitor, partial curve, poor fit]"
2,COc1cc(CCC(=O)Nc2cccc(C(F)(F)F)c2)cc(OC)c1OC,"inconclusive: 28.2 µM [inhibitor, single point]"
3,N#CCC(=O)Nc1ccc(C(=O)NNC(=S)NC2CCCCC2)cc1,inactive
4,Cc1ccc(-n2ncc(C(=O)N3CCN(C(=O)c4ccco4)CC3)c2C2CCN(C(=O)OC(C)(C)C)CC2)cc1,inactive
5,CC1CCCCC1NC(=O)/C(C#N)=C/c1ccc2c(c1)OCCO2 (stereo unspecified),"inconclusive: 12.6 µM [inhibitor, partial curve, poor fit]"
6,COc1ccc([C@H]2/C=C\CN(C(=O)c3ccc(C)cc3)[C@@H](C)C(=O)N2Cc2ccc(F)cc2)cc1,"inconclusive: 11.2 µM [inhibitor, partial curve, poor fit]"
7,Cc1ccc(NC(=O)C2CCN(C(=O)c3cnn(-c4ccccc4)c3-n3cccc3)CC2)cc1C,"inconclusive: 10 µM [inhibitor, single point]"
8,CCc1ccc(S(=O)(=O)N/N=C\c2cn(CC(N)=O)c3ccccc23)cc1,"inconclusive: 8.91 µM [inhibitor, partial curve]"
9,O=C(Nc1ccc(Cl)cc1Cl)c1ccc2c(c1)OCCO2,inactive
10,COc1ccc(CNC(=O)CCNS(=O)(=O)c2cc(Br)cnc2N)cc1,"inconclusive: 3.55 µM [inhibitor, partial curve, poor fit]"
11,O=C(CN1C(=O)/C(=C/c2ccccc2F)Sc2ccccc21)NCC1CCCO1 (stereo unspecified),"inconclusive: 8.91 µM [inhibitor, partial curve, poor fit]"
12,O=c1[nH][nH]c2c1C(c1ccc(Cl)c(Cl)c1)OC(CCc1ccccc1)C2 (stereo unspecified),"inconclusive: 8.91 µM [inhibitor, partial curve]"
13,COc1ccc(NC(=O)Nc2ccccc2F)cc1,"inconclusive: 14.1 µM [inhibitor, single point]"
14,CCO[C@H]1OC(C(=O)N2CCN(Cc3ccc4c(c3)OCO4)CC2)=C[C@@H](c2ccccc2)[C@@H]1CCCO,"inconclusive: 31.6 µM [inhibitor, single point]"
15,CC(C)OP(=O)(OC(C)C)C(Nc1ccccc1)c1cccc([N+](=O)[O-])c1 (stereo unspecified),"inconclusive: 28.2 µM [inhibitor, single point]"
16,Cc1oc(C(C)(C)C)cc1C(=O)Nc1ccc2c(c1)OCCO2,"inconclusive: 8.91 µM [inhibitor, partial curve, poor fit]"
17,CC(C)NS(=O)(=O)c1ccc(NC(=O)C(C)Oc2ccc(C(=O)c3ccccc3)cc2)cc1 (stereo unspecified),"inconclusive: 31.6 µM [inhibitor, single point]"
18,CCCOc1ccc(N2C(=O)CC(SCC(N)C(=O)OCC)C2=O)cc1 (stereo unspecified),inactive
19,Cc1ccc(NC(=O)N/C=C/c2ccccc2)cc1,"inconclusive: 28.2 µM [inhibitor, single point]"
20,CC(=O)CCc1oc2ccccc2c1-c1ccccc1,"inconclusive: 14.1 µM [inhibitor, partial curve, poor fit]"
21,Cc1ccc(-c2c(C(=O)N(C)Cc3ccccc3)oc(=O)c3ccccc23)cc1,"inconclusive: 10 µM [inhibitor, partial curve, poor fit] and inconclusive: 28.2 µM [inhibitor, single point]"

row,SMILES,Potency
1,Cc1cccc(N(CC(=O)NCCSc2ccc(Cl)cc2)S(C)(=O)=O)c1C,"inconclusive: 14.1 µM [inhibitor, single point]"
2,O=c1cc(-c2cccc(F)c2)[nH]c2ccccc12,"inconclusive: 0.316 µM [inhibitor, full curve, poor fit]"
3,COc1ccc(C(=O)c2c(C(F)(F)F)oc3c2C(=O)c2ccccc2C3=O)cc1OC,"inconclusive: 3.98 µM [inhibitor, full curve, poor fit]"
4,Cc1ccc(C(=O)c2ccc(N3CCN(C)CC3)c([N+](=O)[O-])c2)cc1,"inconclusive: 3.98 µM [inhibitor, partial curve, poor fit]"
5,CC(=O)Nc1ccc(NC(=S)NC(=O)C2CC2)cc1,inactive
6,COc1ccc(Cl)cc1NC(=O)NCc1noc2ccccc12,"inconclusive: 20 µM [inhibitor, single point]"
7,C=CCn1c(SCC(=O)Nc2sccc2C(N)=O)nc2sc(CC)cc2c1=O,inactive
8,COc1ccc2cc(CCOC3CCCCO3)ncc2c1 (stereo unspecified),"inconclusive: 7.94 µM [inhibitor, partial curve, poor fit]"
9,CC1CCCN(C(C(=O)Nc2ccc(C(C)C)cc2)c2ccc3c(c2)OCO3)C1 (stereo unspecified),"inconclusive: 2.82 µM [inhibitor, full curve, poor fit]"
10,COc1ccc(CCNC(=O)CCCn2c(=O)c3ccccc3n(CC(=O)Nc3ccc(C)cc3Cl)c2=O)cc1OC,"inconclusive: 22.4 µM [inhibitor, single point]"
11,CC(=O)Nc1ccc(NC(=O)C2CCN(C(=O)c3cccs3)CC2)cc1,inactive
12,Cc1nn2c(=O)cc(COC(=O)C(c3ccccc3)c3ccccc3)nc2s1,inactive
13,COc1ccc(C=C2CCc3ccccc3C2=O)cc1,"inconclusive: 8.91 µM [inhibitor, single point]"
14,Cc1ccc([C@H]2N[C@]3(CCCN(Cc4ccc(Br)cc4)C3=O)[C@H]3C(=O)N(Cc4ccccc4)C(=O)[C@@H]23)cc1,"inconclusive: 28.2 µM [inhibitor, single point]"
15,Cc1ccc(C(=O)OCCOc2cccc(Cl)c2)cc1S(=O)(=O)N1CCOCC1,"inconclusive: 11.2 µM [inhibitor, partial curve, poor fit]"
16,Cc1ccc2cc3cc(C(=O)NCCCN4CCc5ccccc5C4)oc3nc2c1,"inconclusive: 15.8 µM [inhibitor, partial curve, poor fit]"
17,Cc1ccccc1Nc1ccc(S(=O)(=O)N2CCOCC2)cc1[N+](=O)[O-],"inconclusive: 20 µM [inhibitor, single point]"
18,O=C(CSc1ncnc2c1nnn2-c1ccc(F)cc1)NCc1ccco1,"inconclusive: 31.6 µM [inhibitor, single point]"
19,O=C(c1cc(-c2cccnc2)nc2ccccc12)N1CCCc2ccccc21,"inconclusive: 8.91 µM [inhibitor, partial curve, poor fit]"
